This list was built around the results that the source calls inconclusive (neither active nor inactive); the mix of calls is not that of the screen. Where the call is inconclusive, the potency comes from a doubtful curve fit. The source made the active and inactive calls. Calls come from the whole dose curve; as a rule, active = well fitted activation curve with a large enough effect in the signal ratio in the repeat runs (not every such curve was filed as active); inconclusive = weak or mixed curves, or effect the other way; inactive = flat fitted curve, though single readings scatter; the % refers to the signal ratio.
What follows are molecules tested against Estrogen receptor beta (Homo sapiens) (UniProt Q92731) (assay: qHTS assay to identify small molecule agonists of the estrogen receptor beta (ER-beta) signaling pathway (AID 1259377)). Details: ER-beta-UAS-bla HEK293T, beta-lactamase FRET ratio, 16 h; activation: at 92.4 µM (top of the series) unless noted.
Chain of UniProt Q92731 (Q92731 whole entry, looked up): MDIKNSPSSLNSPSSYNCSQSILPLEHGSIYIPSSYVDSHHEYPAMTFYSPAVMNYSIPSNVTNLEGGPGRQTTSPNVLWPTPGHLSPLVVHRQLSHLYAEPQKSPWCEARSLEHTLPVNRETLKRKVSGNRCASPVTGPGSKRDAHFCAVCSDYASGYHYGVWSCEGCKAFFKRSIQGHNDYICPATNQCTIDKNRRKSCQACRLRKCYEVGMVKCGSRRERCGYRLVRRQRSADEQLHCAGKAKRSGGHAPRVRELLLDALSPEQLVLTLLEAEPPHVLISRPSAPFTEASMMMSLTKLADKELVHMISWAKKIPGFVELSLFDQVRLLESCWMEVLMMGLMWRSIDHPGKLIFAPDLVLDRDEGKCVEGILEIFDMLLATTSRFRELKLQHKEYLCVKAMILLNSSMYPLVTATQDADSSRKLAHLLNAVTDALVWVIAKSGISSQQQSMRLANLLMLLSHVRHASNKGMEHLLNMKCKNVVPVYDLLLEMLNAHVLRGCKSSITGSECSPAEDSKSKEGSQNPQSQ
Procedure, shortened: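 qHTS in ER-beta-UAS-bla HEK293T cells: 6 hr settling, then 16 hr compound at 37C, then LiveBLAzer substrate 2 h at RT before fluorescence reading.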
`CN(Cc1cc(Br)cc(Br)c1N)C1CCCCC1` was tested, and the Potency was “inactive”. With `Nc1nnnn1-c1ccccc1` the Potency was inconclusive: 15 µM [falling, partial curve, poor fit]. With `CCCN(CCc1cccs1)[C@H]1CCc2c(O)cccc2C1` the Potency was inconclusive: 26.6 µM [rising, partial curve]. For `CCCCCCCCCCCCN1CCCCCC1=O`, the Potency was “inactive”. For `C=C[C@](C)(O)CC[C@@H]1[C@@]2(C)CCCC(C)(C)[C@@H]2CC[C@@]1(C)O`, the Potency was inconclusive: 68.6 µM [falling, single point]. For `CC(C(=O)O)c1ccc(-c2ccccc2)c(F)c1` (stereo unspecified), the Potency was inconclusive: 30.6 µM [rising, full curve, poor fit]. `CC(O)C#CC(C)O` (stereo unspecified) was tested, and the Potency was inconclusive: 34 µM [activator, partial curve]. `C#C[C@]1(O)CC[C@H]2[C@@H]3CCc4cc(OC5CCCC5)ccc4[C@H]3CC[C@@]21C` was tested, and the Potency was active: 6.68 µM. `Cc1cccc(C)c1NC(=O)C(C)N` (stereo unspecified) was tested, and the activation was inconclusive: 3.27% [at 42.5 µM]. `OCCN(CCO)c1nc(N2CCCCC2)c2nc(N(CCO)CCO)nc(N3CCCCC3)c2n1` was tested, and the Potency was inconclusive: 26.6 µM [fluorescent, partial curve]. In the case of `Oc1ccc(Oc2ccccc2)cc1`, the Potency is reported as active: 11.6 µM.

— PubChem BioAssay (Tox21)
% is set by controls: 0 for no effect and ±100 for the full control effect; potency is the fitted concentration of half-maximal effect; tags give direction and shape of the fitted curve or compound fluorescence and quenching.
